Results from patent US11407771B2 (priority 2018, dated 2022).

What was measured:
MDA-MB-231 [1] = test system: MDA-MB-231
MCF-7 = assay: cells; settings: Homo sapiens, MCF7, 72 h, read-out: MCF-7 IC50
MDA-MB-231 [2] = assay: cells; settings: Homo sapiens, MDA-MB-231, 72 h, read-out: MDA-MB-231 IC50
[3] = test system: MUC5AC mucin formation in IL-13-stimulated hTEC; assay: cells; settings: Homo sapiens, 504 h, read-out: MUC5AC IC50
[4] = test system: MUC5AC mucin formation in IL-13-stimulated pTEC; assay: cells; settings: Sus scrofa, 504 h, read-out: MUC5AC IC50
[5] = test system: MUC5AC mucin formation in IL-13-stimulated hTEC; settings: human
[6] = test system: MUC5AC mucin formation in IL-13-stimulated pTEC; settings: pig

SMILES	IC50 (MCF-7) [nM]	IC50 (MDA-MB-231 [2]) [nM]	IC50 [3] [nM]	IC50 [4] [nM]	also measured
Cc1ccc(-n2nc(C(C)(C)C)cc2NC(=O)Nc2ccc(OCCN3CCOCC3)c3ccccc23)cc1 [Compound 43, BIRB-796, reference compound]	> 1000	> 1000			breast cancer cell proliferation (MDA-MB-231 [1]): no decrease
Cc1ccc(-n2nc(C(C)(C)C)cc2NC(=O)Nc2ncc(CCc3ccnc(NC(=O)C4CC4)c3)s2)cc1 [Compound 331, Cyclopropanecarboxylic acid [4-(2-{2-[3-(5-tert-butyl-2-p-tolyl-2H-pyrazol-3-yl)-ureido]-thiazol-5-yl}ethyl)-pyridin-2-yl]-amide]	87	79			
Cc1ccc(-n2nc(C(C)(C)C)cc2NC(=O)Nc2ncc(CCc3ccnc(NC(=O)C4CCC4)c3)s2)cc1 [Compound 332, Cyclobutanecarboxylic acid [4-(2-{2-[3-(5-tert-butyl-2-p-tolyl-2H-pyrazol-3-yl)-ureido]-thiazol-5-yl}-ethyl)-pyridin-2-yl]-amide]	65	92			
CCOC(=O)Nc1cc(CCc2cnc(NC(=O)Nc3cc(C(C)(C)C)n[nH]3)s2)ccn1 [Compound 354, [4-(2-{2-[3-(5-tert-Butyl-2H-pyrazol-3-yl)-ureido]-thiazol-5-yl}-ethyl)-pyridin-2-yl]-carbamic acid ethyl ester]			0.008	0.289	
CC(=O)Nc1cc(Oc2ccc(NC(=O)Nc3cc(C(C)(C)C)nn3C)c(F)c2)ccn1 [Compound 391, N-(4-{4-[3-(5-tert-Butyl-2-methyl-2H-pyrazol-3-yl)-ureido]-3-fluoro-phenoxy}-pyridin-2-yl)-acetamide]	99	78			
CC(=O)Nc1cc(Oc2ccc(NC(=O)Nc3cc(C(C)(C)C)on3)c(F)c2)ccn1 [Compound 394, N-(4-{4-[3-(5-tert-Butyl-isoxazol-3-yl)-ureido]-3-fluoro-phenoxy}-pyridin-2-yl)-acetamide]	65	121			
CC(=O)Nc1cc(Oc2ccc(NC(=O)Nc3cc(C(C)(C)C)no3)c(F)c2)ccn1 [Compound 395, N-(4-{4-[3-(3-tert-Butyl-isoxazol-5-yl)-ureido]-3-fluoro-phenoxy}-pyridin-2-yl)-acetamide]	88	76			
CC(=O)Nc1cc(Oc2ccc(NC(=O)Nc3cc(C4CC4)ccc3F)c(F)c2)ccn1 [Compound 397, N-(4-{4-[3-(5-Cyclopropyl-2-fluoro-pheny)-ureido]-3-fluoro-phenoxy}-pyridin-2-yl)-actamde]			0.002	1	
CC(=O)Nc1cc(CCc2cnc(NC(=O)Nc3cc(C4CC4)ccc3F)s2)ccn1 [Compound 398, N-[4-(2-{2-[3-(5-Cyclopropyl-2-fluoro-phenyl)-ureido]-thiazol-5-yl}-ethyl)-pyridin-2-yl]-acetamide]			0.004	0.281	
CC(=O)Nc1cc(Oc2ccc(NC(=O)Nc3cc([Si](C)(C)C)ccc3F)c(F)c2)ccn1 [Compound 399, N-(4-{3-Fluoro-4-[3-(2-fluoro-5-trimethylsilanyl-phenyl)-ureido]-phenoxy}-pyridin-2-yl)-acetamide]			0.004	0.263	
CC(=O)Nc1cc(CCc2cnc(NC(=O)Nc3cc([Si](C)(C)C)ccc3F)s2)ccn1 [Compound 400, N-[4-(2-{2-[3-(2-Fluoro-5-trimethylsilanyl-phenyl)-ureido]-thiazol-5-yl}-ethyl)-pyridin-2-yl]-acetamide]			0.003	0.01	
O=c1ncn2nc(Sc3ccc(F)cc3F)ccc2c1-c1c(Cl)cccc1Cl [Compound 401, VX-745, reference compound]			> 1000	> 1000	Cell Therapeutic Ratio [5]: >1; Cell Therapeutic Ratio [6]: >1
